# Assay results as given in PubChem BioAssay AID1865 (National Center for Advancing Translational Sciences (NCATS), 2009).
# Out of some 280,000 compounds screened, about 540 (0.19%) were called active. Inconclusive results, whose numbers are uncertain, are shown with a selection of clear calls. Calls follow the shape of the dose curve; as a rule, active = well fitted activation curve with a large enough effect; inconclusive = small, poorly fitted or top-dose-only effect; inactive = flat fitted curve, though single readings scatter. Potencies of inconclusive entries are doubtful fits and often do not repeat.
# Experiment: Quantitative High-Throughput Screen for Regulators of Epigenetic Control; also: nearly all actives have a fitted effect of over 60% in size; as to GFP activation: % of control where 0% means no effect
# Conditions: murine LDR cells, GFP reporter derepression, 30 h; GFP activation: at 53.9 µM (top of the series)
# In short: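 Murine LDR cells bearing a silenced CMV-driven GFP reporter were exposed to compound for 30 h at 37 C. After PBS washes, GFP-positive cells (20-120 um objects) counted by laser-scanning microplate cytometry.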
# Potency is read from the fitted curve at half-maximal effect; tags tell the direction and shape of the fitted curve.
Compound,Potency,GFP activation
CCOc1ccc(NC(=O)Cn2cc(C(=O)c3ccccc3)c(=O)c3cc4c(cc32)OCO4)cc1,"inconclusive: 35.5 µM [activator, single point]",
Clc1ccc(CNc2ccc(CNc3ncn[nH]3)cc2)cc1,,inactive: -0.952%
CCOc1ccc(NC(=O)Cn2c(=O)c(CNc3ccccc3)cc3cc4c(cc32)OCCO4)cc1,"inconclusive: 20 µM [activator, single point]",
CCc1ccccc1NC(=O)Cn1c(=O)n(-c2ccc(C)c(C)c2)c(=O)c2oc3ccccc3c21,"inconclusive: 17.8 µM [activator, single point]",
N#Cc1sc2nc(-c3ccccc3)cc(C(F)(F)F)c2c1N,"inconclusive: 3.98 µM [activator, full curve]",
CCN(CC)Cc1c(O)ccc2c1O/C(=C\C=C\c1ccccc1)C2=O,,inactive: -1.06%
Cc1ccc(NC(=O)C(=O)NCC(c2cccnc2)N2CCc3ccccc3C2)cc1 (stereo not given),active: 22.4 µM,
COc1ccc(-n2ccn(CC(=O)Nc3ccc(C)c(C)c3)c(=O)c2=O)cc1OC,"inconclusive: 20 µM [activator, single point]",
CCC(C)c1ccc(NC(=S)NCc2cccnc2)cc1 (stereo not given),,inactive: -1.04%
CCn1c(C)nc2cc(-c3nc4n(n3)Cc3ccccc3-4)ccc21,,inactive: -2.74%
O=c1[nH][nH]c2nc(C(F)(F)F)cc(C(F)(F)F)c12,"inconclusive: 3.55 µM [activator, partial curve, poor fit]",
O=C1NC(c2ccccc2OC(F)F)Oc2ccccc21 (stereo not given),"inconclusive: 20 µM [activator, single point]",
CCc1ccc(NC(=O)c2sc3nc(C)c(Cl)c(C)c3c2NC(=O)c2ccccc2)cc1,,inactive: 1.08%
CNc1oc(-c2ccc(COc3ccc(C)cc3)o2)nc1C#N,,inactive: -1.61%
CCCn1c(N)c(N(CCOC)C(=O)/C=C/c2ccc(C(=O)OC)cc2)c(=O)[nH]c1=O,"inconclusive: 5.01 µM [activator, single point]",
CCN(CC)c1ccc(/C=C(/C#N)c2nc3ccccc3[nH]2)c(OC(C)C)c1,active: 12.6 µM,
COc1ccc(NC(=O)CCS(=O)(=O)c2nc(-c3ccc4c(c3)OCO4)cc(C(F)(F)F)n2)c(OC)c1,"inconclusive: 12.6 µM [activator, single point]",
CCN1C(=S)SC(=O)C1=C1C=C(C)N(CCO)C(C)=C1,active: 14.1 µM,
O=C(COC(=O)CCN=C1NS(=O)(=O)c2ccccc21)NC1CCCCCCC1,"inconclusive: 14.1 µM [activator, single point]",
Cc1ccc(C)n1-c1cccc(C(=O)Nc2ccccc2)c1,"inconclusive: 35.5 µM [activator, single point]",
